T1: recombinant CD300c protein (Sino Biological), human CD300c extracellular domain Met1-Arg183 (human, UniProt Q08708 21-183)
T1 construct: Bought protein, expressed in HEK293 cells; also called CD300c antigen
T1 sequence: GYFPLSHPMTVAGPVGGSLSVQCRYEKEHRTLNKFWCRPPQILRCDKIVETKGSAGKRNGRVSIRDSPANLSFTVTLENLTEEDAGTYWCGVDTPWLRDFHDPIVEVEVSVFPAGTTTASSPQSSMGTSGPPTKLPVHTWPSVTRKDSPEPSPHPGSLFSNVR

T2: recombinant CD300c protein (MyBioSource), extracellular domain (His22-His188) of mouse CD300c (mouse, UniProt A2A7V7 22-188)
T2 construct: Bought protein; also called mouse CD300c protein
T2 sequence: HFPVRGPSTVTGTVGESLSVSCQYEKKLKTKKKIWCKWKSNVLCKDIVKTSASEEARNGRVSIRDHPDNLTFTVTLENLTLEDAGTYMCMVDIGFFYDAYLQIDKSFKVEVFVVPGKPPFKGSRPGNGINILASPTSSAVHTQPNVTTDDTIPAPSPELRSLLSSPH

B1: JEWR-375 anti-CD300c scFv-Fc antibody (scFv)
scFv: ELQMTQSPSSLSASVGDRVTITCQASHDISKYLNWYQQKSGKAPKLLIYDASNLETGVPSRFSGSGSGTDFTLTISSLQPEDFATYYCQQSYSTPLTFGGGTKVDIKGGSSRSSSSGGGGSGGGGQVQLQQWGGGLVKPGGSLRLSCAASGFNFRNYAMSWVRQTPGKGLEWVSAINGRGDTTYYADSVKGRFTISRDNSKDTLYLQMNSLRAEDTAVYYCARGPYYFDYGGQGTLVTVSS[human IgG1 Fc not given here]
notes: domain: Fc; Tested as scFv-Fc (human IgG1)
B2: JEWR-M10 anti-mouse CD300c scFv-Fc antibody (scFv)
scFv: ELALTQPPSVSGSPGQSITLSCTGTSSDIGDYNYVSWYQQHPGKAPKLIIYEVNNRPSGVSIRFSGSKSGNTASLTISGLQAEDEADYYCTSYTPRSIVFGGGTQLTVLGGGSSRSSSSGGGGSGGGGEVQLVQSGGGVVRPGGSLRLSCAASGFTFDDYGMSWVRQAPGKGLEWVSGINWNGGSTIYADSVKGRFIISRDNAKNSLYLQMNSLRAEDTALYYCVRGPDLDYWGQGTLLIVSS[human IgG1 Fc not given here]
notes: domain: Fc
B3: JEWR-22 anti-CD300c scFv-Fc antibody (scFv)
scFv: ELALTQSPSSLSASVGDRVTITCQASHDISKYLNWYQQKSGKAPKLLIYDASNLETGVPSRFSGSGSGTDFTLTISSLQPEDFATYYCQQSYSTPLTFGGGTKLEIKGGSSRSSSSGGGGSGGGGQVQLQESGPGLVKPSQTLSLTCTVSGGSISSGSYYWSWIRQPAGKGLEWIGRIYSSGSTKYNPSLKSRVTISKDTSKNQFSLKLSSVTAADTAVYYCASSVAGQNVDYWGQGTLVTVSS[human IgG1 Fc not given here]
notes: domain: Fc
B4: JEWR-139 anti-CD300c scFv-Fc antibody (scFv)
scFv: ELVMTQSPSSLSASVGDRVTITCQASHDISKYLNWYQQKSGKAPKLLIYDASNLETGVPSRFSGSGSATDFTLTISSLQPEDFATYYCQQSYSTPLTFGGGTRLEIKGGSSRSSSSGGGGSGGGGQITLKESGGGLVQPGRSLRLSCAAAGFTFGGYAMHWVRQAPGKGLEWVSGISWNGGDIAYADSVKGRFTISRDNAKNSLYLQMNSLGAEDTALYYCAKSSWWKGDAFDIWGQGTMVTVSS[human IgG1 Fc not given here]
notes: as for B1
B5: JEWR-195 anti-CD300c scFv-Fc antibody (scFv)
scFv: ELQMTQSPSSLSASVGDRVTITCQASHDISKYLNWYQQKSGKAPKLLIYDASNLETGVPSRFSGSGSGTDFTLTISSLQPEDFATYYCQQSYSTPLTFGGGTKVTVLGGGSSRSSSSGGGGSGGGGQVQLQESGGGLVQPGGSLRLSCAASGFNFRNYAMSWVRQTPGKGLEWVSAINGRGDTTYYADSVKGRFTISRDNAKNSLYLQMNSLRAEDTAVYYCASGAYYYNYWGQGTLVTVSS[human IgG1 Fc not given here]
notes: as for B1
B6: JEWR-235 anti-CD300c scFv-Fc antibody (scFv)
scFv: ELVLTQPPSTSATPGQTVTISCSGSHSNIGTNTVNWYQQLPGAAPKLLIYSDSFRPTGVPGRFSGSKSGTSASLVISGLRSEDEADYYCAAWDDSLNGPVFGGGTQLTVLGGGSSRSSSSGGGGSGGGGEVQLVQSGAEVKKPGASVKVSCKASGYTFTSYGISWVRQAPGQGLEWMGWISVYNGNTNSAQKLQGRVTMTTDTSTSTAYMELRSLRSDDTAVYYCAREDSSSFDYWGQGTLVTVSS[human IgG1 Fc not given here]
notes: as for B1
B7: JEWR-314 anti-CD300c scFv-Fc antibody (scFv)
scFv: ELVMTQSPSSLSASVRDRVTITCQASHDISKYLNWYQQKSGKAPKLLIYDASNLETGVPSRFSGSGSGTDFTLTISSLQPEDFATYYCQQSYSTPLTFGGGTKVDIKGGSSRSSSSGGGGSGGGGQVQLQESGGGLVQPGGSLRLSCAASGFNFRNYAMSWVRQTPGKGLEWVSAINGRGDTTYYADSVKDRFTISRDNSKNSLYLQMNSLRAEDTAVYYCAAGAYSSSFGEEGQGTLVIVSS[human IgG1 Fc not given here]
notes: as for B1
B8: JEWR-332 anti-CD300c scFv-Fc antibody (scFv)
scFv: ELTLTQSPSSLSASVGDRVTITCQASHDISKYLNWYQQKSGKAPKLLIYDASNLETGVPSRFSGSGSGTDFTLTISSLQPEDFAIYYCQQSYSTPLTFGGGTKLEIKGGSSRSSSSGGGGSGGGGQVQLVQSGGGVVQPGRSLRLSCAASGFTFSSYAMTWVRQAPGKGLEWVSAISGSGGSTYYADSVKGRFTISRDNAKNTLYLQMNSLRAEDTAVYYCARGPYYFDYWGQGTLVTVSS[human IgG1 Fc not given here]
notes: as for B1

What was measured:
[1] = target: T1, recombinant CD300c protein (Sino …); assay: ELISA, CD300c antigen coated at 1 µg/ml, scFv-Fc 0 to 1 µg/ml, anti-human IgG-HRP
[2] = target: T2, recombinant CD300c protein …; assay: ELISA on coated mouse CD300c, order of binding strength

Row | Binder | EC50 [1] | binding result [2]
1 | B1 | 0.0295 µg/mL | –
2 | B2 | – | binds
3 | B3 | 0.0602 µg/mL | –
4 | B4 | 0.0671 µg/mL | –
5 | B5 | 0.0075 µg/mL | –
6 | B6 | 0.18 µg/mL | –
7 | B7 | 0.031 µg/mL | –
8 | B8 | 0.0146 µg/mL | –

Reference: patent EP4814015A1 (Ewha University-Industry Collaboration Foundation, dated 2026)
